Laboratory results: the supplement of paper PMC7335073
In all, about 4,100 sequences were measured (“relative CpG methylation activity (normalised to average over all NNNCGNNN flanks)”: median about 0.94, highest 2% from about 1.9 on). The list shows a part of the results.

These sequences were tested against DNMT3B catalytic domain (mouse) (UniProt O88509) (assay: relative CpG methylation activity (normalised to average over all NNNCGNNN flanks) (relative (1 = mean)); higher = more methylation of the central CpG). Details: system: in vitro, murine catalytic domain; CpG state: hemimethylated substrate pool; residues: 558-859.
Procedure, shortened: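 Murine DNMT3A or DNMT3B catalytic domain methylated pooled dsDNA substrates, each carrying a central CpG within 10 random flanking nucleotides, with 0.8 mM S-adenosyl-L-methionine in HEPES pH 7.5 buffer at 37 °C for 60 min. Proteinase K treatment, BsaI-HFv2 digestion, hairpin ligation, bisulfite conversion and two-step PCR preceded Illumina sequencing. Relative methylation activity is the average methylation of a flanking context divided by the mean across all contexts, where a context spans three bases on each side, and every experiment was repeated twice independently.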

Sequence of UniProt O88509 (O88509 558-859): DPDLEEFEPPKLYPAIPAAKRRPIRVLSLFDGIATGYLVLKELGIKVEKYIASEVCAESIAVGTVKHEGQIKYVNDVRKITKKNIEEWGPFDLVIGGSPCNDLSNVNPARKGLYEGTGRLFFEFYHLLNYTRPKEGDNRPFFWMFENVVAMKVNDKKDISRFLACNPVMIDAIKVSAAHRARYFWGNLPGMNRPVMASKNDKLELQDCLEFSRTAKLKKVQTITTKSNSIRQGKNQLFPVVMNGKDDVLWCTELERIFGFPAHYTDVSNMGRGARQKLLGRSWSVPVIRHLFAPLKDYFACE

Sequence | relative CpG methylation activity
CTACGTCC | 1.76
GGGCGTCC | 0.743
ACACGGGT | 1.53
GACCGGCA | 1.1
ACACGCCC | 1.48
GATCGCAG | 0.309
GTTCGTTA | 0.328
GGCCGAGA | 1.1
AATCGTAT | 0.334
GATCGCCA | 0.73
TGTCGGAA | 0.694
GACCGGAA | 0.676
CTTCGACA | 1.71
ATGCGCAC | 0.928
TATCGCGT | 0.595
GCCCGGGC | 1.54
ACCCGTCT | 0.608
CCGCGCTG | 0.794
TCCCGACT | 1.66
TATCGGGT | 1.67
GAACGCTG | 1.08
TACCGGCT | 1.21
TTACGCGG | 1.62
ACACGTAC | 1.39

Sequence | relative CpG methylation activity
CAACGGTC | 1.82
TAACGTCG | 1.09
TTTCGTAT | 0.535
TCTCGCCA | 0.703
GGTCGGAA | 0.435
ATCCGGGA | 1.5
AGACGAAC | 1.48
CGGCGCTA | 0.358
TCCCGGCA | 1.62
GGGCGAGG | 0.551
ATACGGCG | 2.11
TCTCGACT | 1.32
ATGCGGCC | 1.47
ACACGGCT | 1.89
GATCGTTA | 0.215
GAGCGTGT | 0.237
CGCCGCTT | 0.513
GTCCGTCG | 0.607
TTGCGGAA | 0.97
TATCGGGA | 1.33
GCGCGAAG | 0.727
ACCCGCTT | 0.897
TTCCGGTG | 1.7
GTACGCCA | 1.65

Sequence | relative CpG methylation activity
TAGCGGCA | 1.41
CAACGGTA | 1.6
ACACGTGC | 0.885
TGGCGGCG | 1.11
CTGCGTAC | 1.38
AATCGATT | 1.59
CACCGCAC | 0.493
TATCGTAA | 0.305
GATCGGTC | 1.32
CGGCGGGG | 0.4
GGACGAAC | 1.14
GCCCGAGA | 1.79
CCTCGTTG | 0.336
TGCCGTCA | 0.377
CAACGGTT | 1.37
CTGCGCAC | 0.831
GGGCGATC | 1.12
AAGCGCTT | 0.656
TGTCGCGG | 0.583
ATCCGGTG | 1.06
CAGCGCCG | 0.755
TGCCGGGA | 0.822
TTGCGATC | 1.63
GAGCGGAT | 0.741

Sequence | relative CpG methylation activity
AATCGCCA | 0.719
TCCCGAAA | 1.18
CGACGTTA | 0.664
CCACGTCT | 1.15
ACTCGAAA | 1.28
AGACGAAG | 1.12
CGACGATA | 1.38
ATTCGTAT | 0.377
GCCCGGAG | 0.646
GCCCGGCT | 1.4
CGCCGCTG | 0.176
TGTCGCTC | 0.838
TTCCGGCC | 1.67
AGTCGGGT | 1.16
GCACGCGA | 0.765
CCGCGGAT | 0.712
GTGCGGGG | 1.06
GCGCGAGC | 1.55
AGTCGCGA | 0.346
AGTCGTCT | 0.556
CCGCGTGC | 0.56
TTACGCTG | 1.66
